One assay concerns HSkMC. Put plainly: cytotoxicity call (relative viability < 0.9). Conditions: 10 µM.
In the next assay the test system is HepG2. Nature of the assay: cytotoxicity call (relative viability < 0.9). The settings on record: 10 µM.
A further assay deals with S. aureus RN4220. Put plainly: growth inhibition call (relative growth <= 0.2). Conditions: 50 µM.

Data on 29 compounds can be found in the antibiotic and cytotoxicity screens of Wong et al. (2023).

The other results are listed elsewhere or left out.

With `Cl.Nc1c2c(nc3ccccc13)CCCC2`, the cytotoxicity call in the assay on HSkMC was “inactive”. Moreover, the cytotoxicity call with HepG2 is “active”. Besides, the growth inhibition call with S. aureus RN4220 was “inactive”.

As for `C[C@@H]1CN([C@H](C)CO)C(=O)c2cccc(NC(=O)Nc3ccccc3)c2O[C@H]1CN(C)S(C)(=O)=O`, the cytotoxicity call in the assay with HSkMC and with HepG2 was “inactive” each time. In addition, the growth inhibition call in the assay on S. aureus RN4220 is “inactive”.

In the case of `Cc1ccc(S(=O)(=O)N(C)C[C@@H]2OCCCC[C@@H](C)Oc3ccc(NC(=O)Nc4c(C)noc4C)cc3C(=O)N([C@@H](C)CO)C[C@@H]2C)cc1`, the cytotoxicity call in the assay with HSkMC and in the assay on HepG2 was “inactive” throughout. In addition, the growth inhibition call in the assay with S. aureus RN4220 was “inactive”.

For `CCCNC(=O)N(C)c1nncnc1C(=O)NC`, the cytotoxicity call in the assay with HSkMC and in the assay on HepG2 was “inactive” each time. The growth inhibition call in the assay with S. aureus RN4220 was “inactive”.

As to `C[C@H](CO)N1C[C@H](C)[C@H](CN(C)C(=O)NC2CCCCC2)Oc2c(NC(=O)C3CC3)cccc2C1=O`, the cytotoxicity call in the assay with HSkMC and in the assay with HepG2 was “inactive” each time. In addition, in the assay with S. aureus RN4220, the growth inhibition call is “inactive”.

As for `COc1ccc(S(=O)(=O)N(C)C[C@@H]2Oc3c(NC(=O)Nc4cccc5ccccc45)cccc3C(=O)N([C@H](C)CO)C[C@@H]2C)cc1`, the cytotoxicity call with HSkMC and in the assay on HepG2 was “inactive” in each case. Besides, the growth inhibition call in the assay with S. aureus RN4220 is “inactive”.

Turning to `C[C@H](CO)N1C[C@H](C)[C@H](CN(C)C(=O)Cc2cccnc2)Oc2ncc(C#CC3(O)CCCC3)cc2C1=O`, the cytotoxicity call in the assay on HSkMC and with HepG2 was “inactive” throughout. In the assay on S. aureus RN4220, the growth inhibition call was “inactive”.

Consider `C[C@@H]1CN([C@H](C)CO)C(=O)c2cccc(NS(=O)(=O)c3ccc(F)cc3)c2O[C@@H]1CN(C)S(=O)(=O)c1ccc(F)cc1`, for which the cytotoxicity call in the assay with HSkMC and in the assay with HepG2 was “inactive” in each case. Moreover, the growth inhibition call in the assay on S. aureus RN4220 was “inactive”.

Take `C[C@@H]1CN([C@@H](C)CO)S(=O)(=O)c2ccc(C#CCN(C)C)cc2O[C@H]1CN(C)Cc1cccnc1`: the cytotoxicity call with HSkMC and in the assay on HepG2 was “inactive” each time. For the same compound, in the assay on S. aureus RN4220, the growth inhibition call was “inactive”.

Turning to `C[C@@H]1CN([C@@H](C)CO)C(=O)CCCn2cc(nn2)CO[C@@H]1CN(C)S(=O)(=O)c1ccc2c(c1)OCCCO2`, the cytotoxicity call in the assay with HSkMC and in the assay on HepG2 was “inactive” in each case. Besides, the growth inhibition call with S. aureus RN4220 was “inactive”.

On to `COc1ccc(S(=O)(=O)N[C@@H]2CC[C@@H](CC(=O)N3CCC(Cc4ccccc4)CC3)O[C@H]2CO)cc1`, for which the cytotoxicity call with HSkMC and with HepG2 was “inactive” in each case. The growth inhibition call with S. aureus RN4220 is “inactive”.

With `C[C@@H]1CCCCO[C@H](CN(C)CC2CCCCC2)[C@H](C)CN([C@@H](C)CO)C(=O)c2cc(NC(=O)CCC(F)(F)F)ccc2O1`, the cytotoxicity call in the assay on HSkMC and in the assay with HepG2 was “inactive” throughout. In addition, the growth inhibition call in the assay with S. aureus RN4220 was “inactive”.

`CC(C)C#Cc1ccc2c(c1)O[C@@H](CN(C)S(=O)(=O)c1cn(C)cn1)[C@H](C)CN([C@H](C)CO)S2(=O)=O`: the cytotoxicity call with HSkMC and in the assay with HepG2 was “inactive” each time. Further, the growth inhibition call with S. aureus RN4220 is “inactive”.

As for `COC[C@H](NC(=O)c1cnc(C)s1)C(=O)N[C@@H](COC)C(=O)N[C@@H](Cc1ccccc1)C(=O)[C@@]1(C)CO1`, the cytotoxicity call in the assay with HSkMC and with HepG2 was “active” each time. The growth inhibition call in the assay with S. aureus RN4220 is “inactive”.

Take `COCC#Cc1cnc2c(c1)C(=O)N([C@H](C)CO)C[C@H](C)[C@H](CN(C)C(=O)c1ccc3c(c1)OCO3)O2`: the cytotoxicity call in the assay with HSkMC and in the assay on HepG2 was “inactive” in each case. The growth inhibition call in the assay with S. aureus RN4220 was “inactive”.

In the case of `C[C@@H]1CN([C@H](C)CO)C(=O)c2cc(NS(=O)(=O)c3ccccc3)ccc2O[C@H]1CN(C)S(=O)(=O)c1cn(C)cn1`, the cytotoxicity call in the assay on HSkMC and with HepG2 was “inactive” throughout. The growth inhibition call in the assay with S. aureus RN4220 is “inactive”.

For the compound `c1cnc2nc[nH]c2c1`, the cytotoxicity call with HSkMC and in the assay with HepG2 was “inactive” each time. The growth inhibition call in the assay with S. aureus RN4220 is “inactive”.

Take `C[C@@H]1CN([C@H](C)CO)S(=O)(=O)c2ccc(C#Cc3cccnc3)cc2O[C@H]1CN(C)CC1CCCC1`: the cytotoxicity call with HSkMC and with HepG2 was “inactive” in each case. For the same compound, the growth inhibition call with S. aureus RN4220 is “inactive”.

On to `O=C(C[C@H]1C=C[C@H](NS(=O)(=O)c2ccc(F)cc2)[C@H](CO)O1)NCc1ccc(Cl)c(Cl)c1`, for which the cytotoxicity call with HSkMC and in the assay on HepG2 was “inactive” in each case. In the assay on S. aureus RN4220, the growth inhibition call is “inactive”.

Turning to `Cc1nn(CC(=O)NC(C)C)c(C)c1[N+](=O)[O-]`, the cytotoxicity call with HSkMC and in the assay with HepG2 was “inactive” in each case. For the same compound, the growth inhibition call in the assay on S. aureus RN4220 was “inactive”.

Take `C[C@@H]1CN([C@H](C)CO)C(=O)Cc2cc(NC(=O)c3ccncc3)ccc2O[C@@H]1CN(C)Cc1ccncc1`: the cytotoxicity call in the assay on HSkMC and with HepG2 was “inactive” throughout. For the same compound, in the assay on S. aureus RN4220, the growth inhibition call is “inactive”.

Consider `C[C@@H]1CN([C@@H](C)CO)C(=O)c2cccc(NC(=O)C3CCOCC3)c2O[C@@H]1CN(C)C(=O)NC1CCCCC1`, for which the cytotoxicity call in the assay with HSkMC and with HepG2 was “inactive” each time. The growth inhibition call in the assay with S. aureus RN4220 is “inactive”.

Consider `CCC(=O)N[C@H]1CC[C@H](CC(=O)OC)O[C@@H]1CO`, for which the cytotoxicity call in the assay with HSkMC and in the assay on HepG2 was “inactive” throughout. Also, the growth inhibition call with S. aureus RN4220 was “inactive”.

In the case of `COc1ccc(NC(=O)Nc2cccc3c2O[C@@H](CN(C)Cc2ccc(Oc4ccccc4)cc2)[C@@H](C)CN([C@H](C)CO)C3=O)cc1`, the cytotoxicity call with HSkMC and with HepG2 was “active” each time. In addition, the growth inhibition call in the assay with S. aureus RN4220 is “inactive”.

As for `NC1CCN(Cc2nc3ccccc3[nH]2)CC1`, the cytotoxicity call with HSkMC and in the assay with HepG2 was “inactive” throughout. Further, the growth inhibition call in the assay with S. aureus RN4220 was “inactive”.

`C[C@@H]1CN([C@H](C)CO)C(=O)c2cc(N(C)C)ccc2O[C@@H](C)CCCCO[C@@H]1CN(C)C(=O)Nc1cccc2ccccc12`: the cytotoxicity call in the assay on HSkMC (human skeletal muscle cells) and in the assay on HepG2 was “inactive” throughout. For the same compound, the growth inhibition call with S. aureus RN4220 was “inactive”.

With `COc1ccc(OCCC(=O)NN)cc1`, the cytotoxicity call in the assay with HSkMC and with HepG2 was “inactive” throughout. For the same compound, the growth inhibition call in the assay with S. aureus RN4220 was “inactive”.

For `CCN(CC)CCNc1nc(=O)[nH]nc1C`, the cytotoxicity call in the assay with HSkMC and in the assay with HepG2 was “inactive” each time. The growth inhibition call with S. aureus RN4220 is “inactive”.

As for `Cc1ccc(S(=O)(=O)Nc2ccc3c(c2)C(=O)N([C@@H](C)CO)C[C@@H](C)[C@H](CN(C)C(=O)Nc2ccc4c(c2)OCO4)OCCCC[C@@H](C)O3)cc1`, the cytotoxicity call in the assay with HSkMC and with HepG2 was “inactive” each time. Besides, in the assay on S. aureus RN4220, the growth inhibition call is “inactive”.
